Test results taken from PubChem BioAssay AID360 (National Center for Advancing Translational Sciences (NCATS), 2006).
About 550 (1.1%) of roughly 48,000 compounds were called active. About 4% were inconclusive and are not listed. No stated cut-off is given here; in the data, active means potency below about 15 µM; inconclusive means mostly about 16 µM to 33 µM; inactive means weaker than that. Some of the results follow.

Molecular target: Lysosomal acid glucosylceramidase (Homo sapiens) (UniProt P04062)
Chain of UniProt P04062 (P04062 whole entry, looked up): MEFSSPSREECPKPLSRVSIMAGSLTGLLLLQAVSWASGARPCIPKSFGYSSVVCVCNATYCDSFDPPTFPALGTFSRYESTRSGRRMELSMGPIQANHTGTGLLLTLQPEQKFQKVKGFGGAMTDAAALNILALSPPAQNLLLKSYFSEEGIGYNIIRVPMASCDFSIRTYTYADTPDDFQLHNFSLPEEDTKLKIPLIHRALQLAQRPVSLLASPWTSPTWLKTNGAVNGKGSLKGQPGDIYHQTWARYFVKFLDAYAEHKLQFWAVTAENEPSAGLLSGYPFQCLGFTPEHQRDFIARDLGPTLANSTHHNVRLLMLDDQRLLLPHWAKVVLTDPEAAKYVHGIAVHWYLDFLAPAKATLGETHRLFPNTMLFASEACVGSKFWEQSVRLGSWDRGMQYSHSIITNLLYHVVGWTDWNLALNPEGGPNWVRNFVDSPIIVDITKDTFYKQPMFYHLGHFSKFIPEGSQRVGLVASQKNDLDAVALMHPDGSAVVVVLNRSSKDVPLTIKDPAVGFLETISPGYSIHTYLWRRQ
Assay: Glucocerebrosidase;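 further: the screen sought inhibitors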
Conditions: purified enzyme, resorufin glucoside fluorescence (screen aimed at inhibitors), 20 min; series mostly up to 77 µM
Summary of the method: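 Compounds titrated against 0.2 nM normal enzyme, 30 uM resorufin beta-D-glucopyranoside substrate, citrate/phosphate buffer with taurocholate and tween-20, pH 5.9. Reaction ran 20 min at room temperature; fluorescence (Ex 548/Em 600) gave AC50.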
Potency means the concentration at half of the fitted maximal effect.

Potency, active:
CCOC(=O)N1CCc2c(sc3c2C(=O)NC(c2ccccc2)N3)C1 (configuration not stated) 4.02 µM
CC1CCc2cccc3c2N1c1cc(C#N)c(C#N)cc1O3 (configuration not stated) 5 µM

Potency, inactive:
O=C(Nc1ccc2nn(-c3ccccc3)nc2c1)c1ccc2c(c1)OCO2 > 76.9 µM
CCCCCCOc1ccc(OCC(O)CN2C(=O)NC(C)(C)C2=O)cc1 (configuration not stated) > 76.9 µM
c1ccc2c(c1)ncn2Cc1nnc2sc(-c3ccc4c(c3)OCO4)nn12 > 76.9 µM
COc1cc(CN2CCN(S(=O)(=O)c3ccc(NC(C)=O)cc3)CC2)cc(OC)c1O > 76.9 µM
Cn1c(=O)c2[nH]c(-c3cccnc3)nc2n(C)c1=O > 76.9 µM
Cc1cccc(-n2ccnc2SCC(=O)Nc2cc(C)on2)c1 > 76.9 µM
CCN(CC)S(=O)(=O)c1cccc(-c2nnc(SCc3ncc(-c4ccccc4)o3)n2C)c1 > 76.9 µM
Cn1cnnc1SC(C(=O)c1ccccc1)c1ccccc1 (configuration not stated) > 76.9 µM
COc1cc2c(cc1OC)C(c1cc3cc(OC)c(OC)cc3[nH]c1=O)N(C(=O)C1CC1)CC2 (configuration not stated) > 76.9 µM
COc1ccc(NC(=O)CSc2nnc(-c3ccc(C)cc3)n2N)cc1 > 76.9 µM
Clc1ccc(C2=CSC3=NCCN23)cc1Cl > 76.9 µM
O=c1cc(C23CC4CC(CC(C4)C2)C3)[nH][nH]1 > 76.9 µM
COC(=O)c1ccccc1NC(=O)c1ccccc1SC > 76.9 µM
CCOC(=O)CSc1nnc(-c2ccc(OC)cc2)n1CC > 76.9 µM
c1ccc(Oc2cccc(OCCn3cncn3)c2)cc1 > 76.9 µM
O=C(CCS(=O)(=O)c1ccc(Br)s1)NCc1cccs1 > 76.9 µM
c1cc2nnnn2nc1N1CCCCC1 > 76.9 µM
CN(C)c1cccc(C(=O)n2cc(C(=O)c3cc(F)ccc3O)cn2)c1 > 76.9 µM
CN(Cc1cc2ccccc2[nH]c1=O)S(=O)(=O)c1ccccc1 > 76.9 µM
Cc1cc(C)c2[nH]c(=O)c(CN(Cc3nnnn3C3CCCC3)C3CCCCC3)cc2c1 > 76.9 µM
COc1ccc(OC)c(C2C(C(=O)c3cc4ccccc4o3)=C(O)C(=O)N2c2cc(C)on2)c1 (configuration not stated) > 76.9 µM
CCCn1c(=NC(=O)c2ccncc2)c(C#N)cc2c(=O)n3cccc(C)c3nc21 > 76.9 µM
O=C(O)Cn1nc(C(F)(F)F)c2c1CCC2 > 76.9 µM
Cc1nn(CC(=O)O)c(C)c1C > 76.9 µM
O=C(NCCc1ccccc1)NC1CCCCC1 > 76.9 µM
CC(=O)NC1CCC(C(=O)O)(c2ccccc2)C1 (configuration not stated) > 76.9 µM
CC(=O)Nc1ccc(NC(=O)Cn2cc3c(n2)CCCC3)cc1 > 76.9 µM
CC(C)[C@H](NC(=O)CCn1nnc2ccccc2c1=O)C(=O)O > 76.9 µM
O=C(Nc1nccs1)C1C2CC3OC(=O)C1C3C2 (configuration not stated) > 76.9 µM
Cc1csc(NC(=O)CSc2nc3ccccc3c(=O)[nH]2)n1 > 76.9 µM
CC(C)CN(CC(C)C)C(=O)C12CCC(C)(C(=O)C1)C2(C)C (configuration not stated) > 76.9 µM
O=C(Nc1ccc(N2CCCC2)cc1)c1cccc(F)c1 > 76.9 µM
O=c1[nH]c(CN2CCC(c3nc4ccccc4s3)CC2)nc2sc3c(c12)CCC3 > 76.9 µM
CCOn1c(=O)c(-c2ccc(OC)cc2)[n+]([O-])c2ccccc21 > 76.9 µM
O=P(O)(O)c1ccccc1OCCCCCOc1ccccc1P(=O)(O)O > 76.9 µM
Cc1ccccc1NC(=O)C1CCN(c2cnccn2)CC1 > 76.9 µM
CCCN(CCC)C(C(=O)Nc1cccc(OC)c1)c1ccccc1 (configuration not stated) > 76.9 µM
Cc1cc(C(F)F)n2ncc(C(=O)NCc3ccccc3)c2n1 > 76.9 µM
CC(=O)Nc1ccc(OCC(O)Cn2nc(C)nc2C)cc1 (configuration not stated) > 76.9 µM
O=c1nc2n(c3sc4c(c13)CCC4)Cc1ccccc1-2 > 76.9 µM
CCN(C(=O)c1c(OC)cccc1OC)c1nnc(-c2cccnc2)s1 > 76.9 µM
CCCc1ccc(OCc2ccc(C(=O)N3CCN(c4ccccn4)CC3)o2)c(OC)c1 > 76.9 µM
CCC(C)[C@H](NC(=O)N1CCCC1)C(=O)O (some centres not stated) > 76.9 µM
CCOc1ccc(S(=O)(=O)n2cnc3cc(C)c(C)cc32)cc1 > 76.9 µM
Cc1ccc(S(=O)(=O)c2cc3c(=O)n4ccccc4nc3n(Cc3ccco3)c2=N)cc1C > 76.9 µM
COc1ccc(S(=O)(=O)N2CCN(C(=O)COc3ccc4c(C)cc(=O)oc4c3)CC2)cc1 > 76.9 µM
COc1cc(C2N(c3cc(C)on3)C(=O)C3CCCN32)cc(OC)c1OC (configuration not stated) > 76.9 µM
COc1cc(C2C(C#N)=C(N)Oc3c2oc(CO)cc3=O)ccc1OC(C)C (configuration not stated) > 76.9 µM
C=C(C)Cn1c(CCNC(=O)C(C)(C)C)nc2ccccc21 > 76.9 µM
CCc1ccc(NC(=O)CSc2nnc(CNC(=O)c3c(F)cccc3Cl)o2)cc1 > 76.9 µM
COc1ccc(N(C(=O)Cn2nnc3ccccc32)C(C(=O)NCc2ccco2)c2ccc(C)o2)cc1 (configuration not stated) > 76.9 µM
CN1C(=O)Cn2c1nc1ccccc12 > 76.9 µM
Cc1cc(-c2csc(NC(=O)c3cc4ccccc4o3)n2)c(C)n1C > 76.9 µM
O=C(Cn1nnc(-c2ccc(OCc3ccccc3F)cc2)n1)N1CCOCC1 > 76.9 µM
Cc1nonc1OCCn1nnnc1N > 76.9 µM
Cc1cccc(NC(=O)c2oc3ccc(S(=O)(=O)N4CCOCC4)cc3c2C)c1C > 76.9 µM
O=C(c1ccc(F)cc1)N1CCN(Cc2ccccc2Br)CC1 > 76.9 µM
CCCCOCC(O)CN1CCN(C(C)=O)CC1 (configuration not stated) > 76.9 µM
CCC(c1nnnn1CCc1ccccc1)N1CCN(C(=O)c2ccco2)CC1 (configuration not stated) > 76.9 µM
CNC(=O)CSc1nnc(-c2ccncc2)n1Cc1ccccc1 > 76.9 µM
CC(=O)N1CCCc2cc(S(=O)(=O)NC(C(=O)NCc3ccc(C)cc3)C(C)C)ccc21 (configuration not stated) > 76.9 µM
O=P(O)(CCCP(=O)(O)CCc1ccccc1)CCc1ccccc1 > 76.9 µM
Cc1nnc(SCc2cccs2)[nH]c1=O > 76.9 µM
CCOc1cc(C)c(Cl)cc1S(=O)(=O)NCc1ccco1 > 76.9 µM
CCCCNS(=O)(=O)c1ccc2nc(SCC(=O)Nc3sccc3C#N)[nH]c2c1
O=C(O)C1CC(=O)N(Cc2ccccc2)C1 (configuration not stated) > 76.9 µM
O=C(CCN1C(=O)C2C3C=CC(C3)C2C1=O)Nc1c(F)cc(F)cc1Br (configuration not stated) > 76.9 µM
COCCNC(=O)CN(C(=O)CCC(=O)Nc1nccs1)c1ccccc1OC > 76.9 µM
CCN(C(=O)Cc1c(C(=O)O)[nH]c2ccccc12)c1cc(OC)ccc1OC > 76.9 µM
COc1cc(C(=O)N2CCN(C(=O)c3ccccc3)CC2)cc(OC)c1OC > 76.9 µM
O=C(O)c1cccnc1SC1CC(=O)N(Cc2ccccc2)C1=O (configuration not stated) > 76.9 µM
CCC(C)NS(=O)(=O)c1ccc(OCC(=O)NCc2ccco2)cc1 (configuration not stated) > 76.9 µM
CCOC(=O)c1[nH]c(C)c(C(=O)Nc2cc(OC)ccc2OC)c1C > 76.9 µM
CC(C)c1cc(C(=O)Nc2cccc(Cl)c2)no1 > 76.9 µM
Cc1cccc(C)c1NC(=O)C1(NC(=O)C2CCCN2C(=O)OC(C)(C)C)CCCCC1 (configuration not stated) > 76.9 µM
O=C(Cn1cccc1C(=O)c1ccccc1)NCc1ccccn1 > 76.9 µM
CC(C)OC(=O)CC(=O)CSc1nc2c(cc1C#N)CCC2 > 76.9 µM
O=C(NCCN1CCCC1=O)Nc1ccccc1 > 76.9 µM
Cc1cc(NC(=O)c2ccc(Br)c(S(=O)(=O)N3CCCC3)c2)no1 > 76.9 µM
N#CCCC12CCCCC1=Nc1ccccc12 (configuration not stated) > 76.9 µM
CCOC(=O)N1CCC(NC(=O)Cn2cccc2C(=O)c2ccccc2)CC1 > 76.9 µM
O=C(Cn1cnc2c(nnn2-c2cccc(Cl)c2)c1=O)N1CCCC1 > 76.9 µM
COc1ccc(-c2nnn(CCc3nn[nH]n3)n2)cc1OC > 76.9 µM
Cc1cc(Nc2nc3c(c(=O)n(C)c(=O)n3C)n2C)n(-c2ccc(Cl)cc2)n1 > 76.9 µM
O=C(c1ccc(Nc2cccc(C(F)(F)F)c2)nc1)N1CCCC1 > 76.9 µM
CC(=O)Nc1ccc(S(=O)(=O)n2nc(-c3ccc(C)cc3)nc2N)cc1 > 76.9 µM
COc1ccc(N2Cc3cccc(C(=O)N4CCOCC4)c3C2=O)cc1 > 76.9 µM
O=C(CCNS(=O)(=O)c1cccs1)NCc1cccs1 > 76.9 µM
CN(C)C(=O)c1nc(C#N)c(N(C)C)o1 > 76.9 µM
COCCn1cnc2c(c1=O)c1nc3ccccc3nc1n2/N=C/c1cccc(OC)c1OC
